Measurements from patent publication US6254870, “Thrombopoietin: IL-3 fusion protein” (G. D. Searle & Co., dated 2001).

Biological target: human c-mpl-R (human, UniProt P40238)
Assay: cell-based or functional assay

TF1 Proliferation Assay: total counts tritiated thymidine incorporation, 10% supernatants: 134000 total counts
B1: […] c-mpl ligand K(122)E (pMON26451-1) (ligand)
chain: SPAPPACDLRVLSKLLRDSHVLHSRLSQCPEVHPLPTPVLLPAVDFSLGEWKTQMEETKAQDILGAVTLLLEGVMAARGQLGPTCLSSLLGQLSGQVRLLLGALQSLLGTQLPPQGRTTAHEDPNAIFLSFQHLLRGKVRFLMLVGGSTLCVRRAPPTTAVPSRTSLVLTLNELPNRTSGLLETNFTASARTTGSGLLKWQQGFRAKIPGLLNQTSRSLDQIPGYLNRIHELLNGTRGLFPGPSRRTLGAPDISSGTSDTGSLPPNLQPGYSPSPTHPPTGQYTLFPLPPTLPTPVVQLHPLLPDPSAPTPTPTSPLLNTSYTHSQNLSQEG
